Results: PMC10735225
No constants are given. Whether binding was seen depends on the method and setting. Binding seen in cells or lysates may run through a third protein. Some entries that bind do so weakly or less than the wild type. Tags and fused reporters may be left off the sequences shown.

Chains of the proteins cited; added tags and fusions are not shown.
UniProt Q9DAK2: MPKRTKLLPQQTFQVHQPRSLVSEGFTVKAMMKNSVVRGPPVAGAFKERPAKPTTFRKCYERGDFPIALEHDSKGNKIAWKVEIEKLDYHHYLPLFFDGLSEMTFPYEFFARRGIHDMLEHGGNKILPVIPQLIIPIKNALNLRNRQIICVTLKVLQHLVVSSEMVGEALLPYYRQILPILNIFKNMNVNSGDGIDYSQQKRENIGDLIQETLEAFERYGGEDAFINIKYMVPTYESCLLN

Tests used:
Test in all cases: co-IP; lysates of transfected HEK293T cells (Pierce IP Lysis Buffer); 2 ug anti-Myc or anti-FLAG antibody, Protein A/G agarose; western blot
Myc-tagged DRC2 (mouse) = biological target: T1, Myc-tagged DRC2 (mouse) (UniProt Q8VHI7)
T1 sequence: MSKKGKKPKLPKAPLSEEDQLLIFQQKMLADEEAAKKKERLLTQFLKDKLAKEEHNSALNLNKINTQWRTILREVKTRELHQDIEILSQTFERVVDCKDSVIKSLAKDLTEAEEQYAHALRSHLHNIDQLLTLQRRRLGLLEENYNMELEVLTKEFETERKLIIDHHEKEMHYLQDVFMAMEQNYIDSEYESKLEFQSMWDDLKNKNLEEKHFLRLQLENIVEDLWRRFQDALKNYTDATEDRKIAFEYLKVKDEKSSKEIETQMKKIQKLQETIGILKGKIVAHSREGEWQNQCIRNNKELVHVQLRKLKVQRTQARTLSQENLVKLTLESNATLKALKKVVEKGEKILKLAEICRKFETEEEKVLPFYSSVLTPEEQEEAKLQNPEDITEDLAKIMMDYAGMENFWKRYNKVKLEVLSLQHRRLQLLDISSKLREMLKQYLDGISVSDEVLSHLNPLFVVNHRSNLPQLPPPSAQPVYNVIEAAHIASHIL

[1] = biological target: T2, Myc-tagged DNALI1 (mouse) (UniProt Q8BVN8)
T2 sequence: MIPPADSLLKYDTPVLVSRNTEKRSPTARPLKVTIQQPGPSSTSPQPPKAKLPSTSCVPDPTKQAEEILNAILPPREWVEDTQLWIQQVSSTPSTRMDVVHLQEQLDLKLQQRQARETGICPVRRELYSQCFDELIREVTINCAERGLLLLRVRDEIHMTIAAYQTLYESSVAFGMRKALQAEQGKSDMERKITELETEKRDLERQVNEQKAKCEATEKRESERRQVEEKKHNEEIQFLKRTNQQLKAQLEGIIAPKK

Myc-tagged DNAI2 (mouse) = biological target: T3, Myc-tagged DNAI2 (mouse) (UniProt A2AC93)
T3 sequence: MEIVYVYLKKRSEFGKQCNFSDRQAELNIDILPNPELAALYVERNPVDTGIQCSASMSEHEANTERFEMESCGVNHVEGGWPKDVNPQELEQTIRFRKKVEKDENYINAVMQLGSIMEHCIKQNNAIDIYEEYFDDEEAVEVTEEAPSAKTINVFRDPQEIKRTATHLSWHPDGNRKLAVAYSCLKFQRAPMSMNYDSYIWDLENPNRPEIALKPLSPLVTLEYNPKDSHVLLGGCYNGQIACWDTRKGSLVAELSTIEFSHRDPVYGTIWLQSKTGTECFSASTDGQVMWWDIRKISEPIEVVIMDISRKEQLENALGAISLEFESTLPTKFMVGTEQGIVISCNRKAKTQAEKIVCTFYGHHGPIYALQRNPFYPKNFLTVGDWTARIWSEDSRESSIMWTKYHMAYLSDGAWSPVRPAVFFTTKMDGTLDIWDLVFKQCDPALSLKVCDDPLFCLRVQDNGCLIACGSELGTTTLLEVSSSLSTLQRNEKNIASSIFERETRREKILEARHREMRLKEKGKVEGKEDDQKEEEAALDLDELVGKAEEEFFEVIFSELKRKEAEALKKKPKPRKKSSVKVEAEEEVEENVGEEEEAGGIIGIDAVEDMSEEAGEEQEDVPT

Myc-tagged PACRG (mouse) = Myc-tagged PACRG (mouse) (UniProt Q9DAK2)
Myc-tagged DRC4 (mouse) = biological target: T4, Myc-tagged DRC4 (mouse) (UniProt Q60779)
T4 sequence: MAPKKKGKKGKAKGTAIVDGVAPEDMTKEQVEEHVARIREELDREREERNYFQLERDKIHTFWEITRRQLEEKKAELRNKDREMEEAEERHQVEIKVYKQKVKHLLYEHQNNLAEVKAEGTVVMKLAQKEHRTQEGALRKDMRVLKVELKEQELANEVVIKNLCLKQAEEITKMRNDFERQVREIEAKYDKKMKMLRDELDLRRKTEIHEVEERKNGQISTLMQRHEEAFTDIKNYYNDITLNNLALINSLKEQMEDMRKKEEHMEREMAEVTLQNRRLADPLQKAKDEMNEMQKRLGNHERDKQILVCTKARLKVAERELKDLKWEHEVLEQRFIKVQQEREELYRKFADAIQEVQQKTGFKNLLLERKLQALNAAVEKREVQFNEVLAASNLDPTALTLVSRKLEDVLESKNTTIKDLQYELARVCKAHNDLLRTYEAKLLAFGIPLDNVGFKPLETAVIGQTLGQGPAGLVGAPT

Myc-tagged SPAG6 (mouse) = biological target: T5, Myc-tagged SPAG6 (mouse) (UniProt Q9JLI7)
T5 sequence: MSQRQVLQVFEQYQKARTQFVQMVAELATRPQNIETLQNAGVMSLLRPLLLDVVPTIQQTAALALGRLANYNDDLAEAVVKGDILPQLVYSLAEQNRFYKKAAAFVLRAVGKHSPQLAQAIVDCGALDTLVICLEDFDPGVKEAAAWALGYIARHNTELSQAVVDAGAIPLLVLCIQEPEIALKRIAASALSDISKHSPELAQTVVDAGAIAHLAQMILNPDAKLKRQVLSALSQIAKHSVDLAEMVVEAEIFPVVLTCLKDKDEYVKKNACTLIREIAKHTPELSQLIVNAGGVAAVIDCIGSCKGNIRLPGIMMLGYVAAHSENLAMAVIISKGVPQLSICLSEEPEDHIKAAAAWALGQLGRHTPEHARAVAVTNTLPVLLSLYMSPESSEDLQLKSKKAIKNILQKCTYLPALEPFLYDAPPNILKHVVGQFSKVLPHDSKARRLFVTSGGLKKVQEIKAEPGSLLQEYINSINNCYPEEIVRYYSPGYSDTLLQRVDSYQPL

B1: FLAG-tagged CFAP52 (cilia and flagella associated protein 52) (protein, UniProt Q5F201-1 1-620)
chain: MEEQVLPELDVAELELQAVIGFNGHVPNGLKCHPDQEHLIYPLGCTVLIQAINTNEQNFLHGHGNNVSCVTISKEGDYIASGQVTFMGFKADIILWDFKKRELIARLSLHKGKIEALAFSPNDLYLVSLGGPDDGSVVVWSIAKRDAICGSPAAGLNVGNATSVVFSRCRDEMFVTAGNGTIRVWELDLPNRKIWPTECQTGQMKRIVLSTGMADDDSFFYLGTTTGDILKMNPKTKLLADTGPVKDKFSLGVSALRCLKMGGLLVGSGAGLLIFCKSPSYKPIKKVQLQGGITSITLRGEGHQFFVGTEESHIYRVNFTDFKETLIATCHFEAVQDIVFPFGTAELFATCAKKDIRVWHTMSKRELLRITVPNMTCHGIDFMRDGKSIISAWDDGKIRAFAPESGRLMYTINSAHRIGVTAIATTSDCKRIISGGGEGEVRVWQVGCQTQKLEEALKEHKSSVSCIRVKKNNEECVTASTDGTCIIWDLVRLRRNQMILANTLFQCVCYHPEEFQIITSGTDRKIAYWEVFDGSVIRELEGSLSGSINGMDITQEGGHFVTGGHDHLVKVWDYNEGEVTHVGVGHSGNIMAMRISPGNQYIVSVSADGAILRWKYPFAS
binding (Myc-tagged DRC2 (mouse)): no binding | binding [1]: no binding | binding (Myc-tagged DNAI2 (mouse)): binds | binding (Myc-tagged PACRG (mouse)): binds | binding (Myc-tagged DRC4 (mouse)): no binding | binding (Myc-tagged SPAG6 (mouse)): no binding
